{"source": "PubChem BioAssay AID504845", "about": "(National Center for Advancing Translational Sciences (NCATS), 2011)", "note": "The campaign covered roughly 390,000 compounds. About 150 (0.038%) were called active. The inconclusive results got no clear call from the source; some entries with a clear call stand among them for comparison. The call rests on the fitted dose curve; in most records, active means well fitted inhibition curve with a large enough effect; inconclusive means small, poorly fitted or top-dose-only effect; inactive means no such curve, though single readings can be large or run the other way. Potencies beside an inconclusive call are fits to weak or partial responses and may not hold up. On the % scale 0 is the no-effect control and ±100 the full control effect; potency means the concentration at half of the fitted maximal effect; tags describe the fitted curve by direction and shape.", "data": [{"target": "Regulator of G-protein signaling 4 (Homo sapiens) (UniProt P49798)", "sequence (P49798 whole entry, looked up)": "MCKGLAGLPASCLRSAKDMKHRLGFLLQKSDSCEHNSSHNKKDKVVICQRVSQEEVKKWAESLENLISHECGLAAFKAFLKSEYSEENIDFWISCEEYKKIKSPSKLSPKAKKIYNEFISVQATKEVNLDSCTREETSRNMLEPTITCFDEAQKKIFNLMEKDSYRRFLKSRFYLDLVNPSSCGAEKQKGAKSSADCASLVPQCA", "assay": "Inhibitors of Regulator of G Protein Signaling (RGS) 4: qHTS; further: nearly all actives have a fitted effect of over 75% in size", "details": "Transcreener GDP fluorescence polarization, RGS4-accelerated GTP hydrolysis; series mostly up to 114 µM; activity change, negative = inhibition: at the top concentration", "method_in_brief": "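MLSMR compounds (23 nl, pin-transferred) preincubated 10 min at room temperature with a 500nM (2x) first reagent, then RGS4 at 900nM (2x) plus Transcreener GDP mix added; fluorescence polarization (620/688 nm) read before and after 90 min at 30 °C.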", "values": [{"compound": "O=S(=O)(c1ccc(Cl)cc1)c1nc(-c2ccco2)oc1SCc1ccccc1F", "Potency": "inconclusive: 89.1 µM [inhibitor, single point]"}, {"compound": "CCOc1ccc([N+](=O)[O-])cc1CNC1CCCCCCC1", "activity change, negative = inhibition": "inactive: -0.197%"}, {"compound": "O=C(COc1ccccc1)Nc1cccc(-c2nnc(-c3ccccc3)o2)c1", "Potency": "inconclusive: 100 µM [inhibitor, single point]"}, {"compound": "COc1cc(N)c(Cc2nccc3cc(OC)c(OC)cc23)cc1OC", "Potency": "inconclusive: 79.4 µM [inhibitor, partial curve, poor fit]"}, {"compound": "O=[N+]([O-])c1ccc(COc2ccccc2/C=N/O)cc1", "activity change, negative = inhibition": "inactive: -7.24%"}, {"compound": "CCCC1(C(=O)OC)NC(c2ccco2)C2C(=O)N(C)C(=O)C21", "note": "(configuration not stated)", "Potency": "inconclusive: 50.1 µM [inhibitor, partial curve, poor fit]"}, {"compound": "COc1ccc(CN2C(=O)c3cccnc3C2Nc2ccc(C)cc2)cc1", "note": "(configuration not stated)", "activity change, negative = inhibition": "inactive: 3.95% [at 56.9 µM]"}, {"compound": "COc1ccc(C)cc1NC(=O)c1cc(C2CC2)nc2c1c(C)nn2C1CCS(=O)(=O)C1", "note": "(configuration not stated)", "activity change, negative = inhibition": "inactive: -19.1%"}, {"compound": "COC(=O)C1=C(C)N(CCc2ccccc2)C(=O)/C1=C\\c1ccco1", "activity change, negative = inhibition": "inactive: -17.5%"}, {"compound": "O=C(c1cc(-c2ccc(F)cc2)on1)N1CCN(c2ccc(F)cc2)CC1", "Potency": "inconclusive: 20 µM [inhibitor, full curve, poor fit]"}, {"compound": "CCOC(=O)CNC(=S)n1cnc(N)n1", "Potency": "inconclusive: 100 µM [inhibitor, partial curve, poor fit]"}, {"compound": "Cc1nn(C(=O)CCCn2cc([N+](=O)[O-])cn2)c(C)c1Cl", "Potency": "inconclusive: 56.2 µM [inhibitor, partial curve, poor fit]"}, {"compound": "O=C(O)/C=C\\C(=O)Nc1cccc(C(=O)Nc2cccc(O)c2)c1", "Potency": "inconclusive: 44.7 µM [inhibitor, partial curve, poor fit]"}, {"compound": "Cc1ccc(Nc2nc(=O)c3cc([N+](=O)[O-])ccc3s2)cc1", "Potency": "inconclusive: 100 µM [inhibitor, partial curve, poor fit]"}, {"compound": "Cc1c(N2C(=O)/C(=C\\C3CC=CCC3)SC2=S)c(=O)n(-c2ccccc2)n1C", "note": "(configuration not stated)", "Potency": "inconclusive: 20 µM [inhibitor, full curve, poor fit]"}, {"compound": "CCCN1CCC(NC(=O)CCc2nnc(Cc3cc(OC)ccc3OC)o2)CC1", "activity change, negative = inhibition": "inactive: -0.26%"}, {"compound": "Cc1cc(Br)cnc1NC(=S)Nc1ccc(F)cc1F", "Potency": "inconclusive: 70.8 µM [inhibitor, single point]"}, {"compound": "Cc1ccc(SSc2cc(C)ccc2N)c(N)c1", "Potency": "inconclusive: 44.7 µM [inhibitor, partial curve, poor fit]"}, {"compound": "O=[N+]([O-])c1cc(C(F)(F)F)ccc1NCCCCNS(=O)(=O)c1ccc(Cl)cc1", "activity change, negative = inhibition": "inactive: -7.71%"}, {"compound": "COc1ccccc1C(=O)N1CCN(Cc2cccnc2)CC1", "activity change, negative = inhibition": "inactive: 4.48%"}, {"compound": "O=C(Cn1c(=O)c(CNc2ccccc2)cc2cc3c(cc21)OCCO3)Nc1ccccc1Cl", "Potency": "inconclusive: 79.4 µM [inhibitor, partial curve, poor fit]"}, {"compound": "CNC(=O)c1ccccc1NC(=O)c1ccc(C)c(S(=O)(=O)N2CCCCC2)c1", "activity change, negative = inhibition": "inactive: -1.7%"}, {"compound": "N#Cc1c(N2CCN(C(=O)c3ccco3)CC2)nc(-c2ccccc2)c2c1CCCC2", "Potency": "inconclusive: 22.4 µM [inhibitor, full curve, poor fit]"}, {"compound": "COc1ccc(CCNC(=O)c2ccc3nc(N4CCCCC4)sc3c2)cc1OC", "activity change, negative = inhibition": "inactive: 11.7%"}, {"compound": "CCN(CC)CCn1c(=N)n(CC(=O)c2ccc(Br)s2)c2ccccc21", "activity change, negative = inhibition": "inactive: -0.964%"}, {"compound": "CCn1c(C)nc2cc(C(=O)N/N=C/c3ccc(O)c(O)c3O)ccc21", "Potency": "inconclusive: 31.6 µM [inhibitor, full curve, poor fit]"}, {"compound": "CN(CC(=O)Nc1cccc(F)c1)C(=O)/C=C/c1ccc(S(=O)(=O)N2CCCCCC2)cc1", "Potency": "inconclusive: 89.1 µM [inhibitor, single point]"}, {"compound": "COc1cc(OC)cc(-c2c(-c3cccs3)c3cc(-c4ccc5c(c4)OCO5)ccc3n2C)c1", "activity change, negative = inhibition": "inactive: -15%"}, {"compound": "C=CC[C@H]1C=C[C@@H](C(C(=O)OC)C(=O)OC)CN1C(C)=O", "Potency": "inconclusive: 17.8 µM [inhibitor, full curve, poor fit]"}, {"compound": "Cc1ccc2nc(SCC(=O)N3CCC(C)CC3)nc(=O)n2c1", "Potency": "inconclusive: 79.4 µM [inhibitor, partial curve, poor fit]"}, {"compound": "Cn1c(=O)c2c(nc(CN3CCN(c4ccccc4F)CC3)n2Cc2ccc(F)cc2)n(C)c1=O", "activity change, negative = inhibition": "inactive: -1.52%"}, {"compound": "O=C(O)CCc1ccc(-c2ccccc2)n1-c1ccc(C(=O)O)cc1", "Potency": "inactive"}, {"compound": "CCn1c(SCC(=O)N(C(C)C)C(C)C)nnc1-c1cc2ccccc2cc1O", "Potency": "inconclusive: 79.4 µM [inhibitor, partial curve, poor fit]"}, {"compound": "CC(C)CSC1=NSC2=NC(=O)/C(=C\\c3coc4ccccc4c3=O)C(=N)N12", "Potency": "inconclusive: 70.8 µM [inhibitor, single point]"}, {"compound": "O=C1N/C(=C\\c2ccc(O)cc2)C(=O)c2ccccc21", "Potency": "inconclusive: 79.4 µM [inhibitor, partial curve, poor fit]"}, {"compound": "Cc1ccnc(Nc2nc(-c3ccc(O)c(O)c3)cs2)c1", "Potency": "inconclusive: 79.4 µM [inhibitor, single point]"}, {"compound": "C#CCOCCOCCOCCNc1nc(N2CCN(C(=O)CCCCCCCCCCNC(=O)[C@H](CCCCN)n3cc(CCO)nn3)CC2)nc(N2CCN(C(=O)CCCCCCCCCCNC(=O)[C@H](CCCN=C(N)N)n3cc(C[C@@H](C)CC)nn3)CC2)n1", "Potency": "inconclusive: 28.2 µM [inhibitor, full curve, poor fit]"}, {"compound": "C[C@H]1CN([C@@H](C)CO)C(=O)c2cccc(NC(=O)Nc3ccc(C(F)(F)F)cc3)c2O[C@H]1CN(C)C", "activity change, negative = inhibition": "inactive: -4%"}, {"compound": "COC(=O)CCC(=O)N1CCCC(CO)(Cc2ccccc2)C1", "note": "(configuration not stated)", "Potency": "inconclusive: 39.8 µM [inhibitor, partial curve, poor fit]"}, {"compound": "O=C(NCc1cccnc1)/C(=C/c1ccc(Cl)cc1)NC(=O)c1ccccc1", "activity change, negative = inhibition": "inactive: -42.7%"}, {"compound": "COC(=O)CC(=O)CSc1nc2cc(C(=O)NCC(C)C)ccc2c(=O)n1CCc1ccccc1", "Potency": "inconclusive: 100 µM [inhibitor, single point]"}, {"compound": "O=C(O)c1cc(-c2ccc(-c3ccc(F)cc3)o2)nc2ccccc12", "Potency": "inconclusive: 56.2 µM [inhibitor, partial curve, poor fit]"}]}]}
